Measured values published in PubChem BioAssay AID1345083 (National Center for Advancing Translational Sciences (NCATS), 2018).
Out of some 94,000 compounds screened, about 6,200 (6.6%) were called active. Inconclusive results, whose numbers are uncertain, are shown with a selection of clear calls. Calls come from the whole dose curve; as a rule, active = well fitted inhibition curve with a large enough effect; inconclusive = small, poorly fitted or top-dose-only effect; inactive = flat fitted curve, though single readings scatter. A potency beside an inconclusive call is a rough fit, not a confirmed value.

Experiment: Cytotoxic Profiling in HEK 293 Cell Line of Diverse Libraries Using Quantitative High-Throughput Screening; note: nearly all actives have a fitted effect of over 60% in size
Settings: HEK 293 viability, ATP luminescence (CellTiter-Glo), 48-72 h; activity change, negative = cytotoxicity: at 115 µM (top of the series) unless noted; series mostly up to 115 µM
Outline: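 CellTiter-Glo luminescence (cellular ATP) was read after 48 or 72 hr of compound exposure at 37 degree Celsius. Cells were HEK 293 plated at 250 cells/well.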
% is set by controls: 0 for no effect and ±100 for the full control effect; potency is the fitted concentration of half-maximal effect; tags give direction and shape of the fitted curve.

Row | Compound | Potency | activity change, negative = cytotoxicity | outcome
1 | Cc1noc(-c2ccc(OC3CN(C(=O)NCc4ccccc4)C3)cc2)n1 | inconclusive: 44.7 µM [inhibitor, partial curve, poor fit] | – | –
2 | O=C(NCc1cccc(C(F)(F)F)c1)c1nc2sccn2c1-c1ccncc1 | inconclusive: 50.1 µM [inhibitor, partial curve, poor fit] | – | –
3 | CC(=O)NC1(C)CCN(Cc2ccc(-c3ccccc3OCc3ccccc3)cc2)C1 (configuration not stated) | active: 31.6 µM | – | –
4 | COc1ccc(CCNC(=O)C2(Cc3ccccc3)CCCCC(=O)N2)cc1OC (configuration not stated) | – | inactive: -8.65% | –
5 | O=C1NCCCCCN(C(=O)NC2CCCCC2)[C@H]2CCCC[C@@H]12 | – | inactive: -29.4% | –
6 | O=C1N(CC2CCC2)CCCC12CCN(Cc1ccc(-c3ccn[nH]3)s1)C2 (configuration not stated) | inconclusive: 79.4 µM [inhibitor, partial curve, poor fit] | – | –
7 | COc1ccc(-c2cc(C[C@H]3CNCC[C@H]3CC(=O)N3CCN(c4ccccc4OC)CC3)no2)cc1 | inconclusive: 50.1 µM [inhibitor, partial curve, poor fit] | – | –
8 | O=C(NC1CCCCC1)N1CCCCCC1CN1CCCC1 (configuration not stated) | – | inactive: -16.8% | –
9 | O=C(c1ccc(F)cc1)N1CCN(c2ccc3nnc(-c4ccccc4)n3n2)CC1 | inconclusive: 89.1 µM [inhibitor, single point] | – | –
10 | Cc1noc(C)c1S(=O)(=O)N1CCC2(CC1)C(=O)NN=C2C1CC1 | inconclusive: 89.1 µM [inhibitor, single point] | – | –
11 | COc1ccc(NC(=O)[C@@H]2C[C@H](c3ccc(F)cc3)N(Cc3csc(C)n3)C2)cn1 | inconclusive: 100 µM [inhibitor, partial curve, poor fit] | – | –
12 | COc1ccc(-c2cc3c(=O)n(CCNC(=O)Cc4cccs4)ccn3n2)cc1 | inconclusive: 79.4 µM [inhibitor, partial curve, poor fit] | – | –
13 | CCOc1cc(=O)n2c(c1C(=O)Nc1ccc(S(N)(=O)=O)cc1)CCCC2 | – | inactive: -9.53% | –
14 | CN1C[C@@H](NC(=O)NC2CCCCC2)C[C@H]1c1nc(Cc2ccccc2)no1 | inconclusive: 126 µM [inhibitor, single point] | – | –
15 | CCn1nccc1C(=O)N1CC(Oc2ccc(-c3nc(C)no3)cc2)C1 | inconclusive: 22.4 µM [inhibitor, full curve] | – | –
16 | COc1ccc(-c2cc(N3CCCN(C(=O)CC4CCCCC4)CC3)n[nH]2)cc1 | inconclusive: 50.1 µM [inhibitor, partial curve, poor fit] | – | –
17 | O=C(C1CCCCN1Cc1ccc(-c2cccs2)cc1)N1CCOCC1 (configuration not stated) | inconclusive: 89.1 µM [inhibitor, single point] | – | –
18 | c1ccc(N[C@@H]2CCC3CC2[C@@H](Oc2ccccn2)CO3)cc1 (some centres not stated) | inconclusive: 89.1 µM [inhibitor, single point] | – | –
19 | CC(C)CN1C(=O)c2ccccc2C(C(=O)Nc2ccc(C(N)=O)cc2)C12CCCC2 (configuration not stated) | inconclusive: 35.5 µM [inhibitor, partial curve] | – | –
20 | Cc1cccc(CC(=O)N2CCN(c3cc(-c4cccs4)[nH]n3)CC2)c1 | inconclusive: 50.1 µM [inhibitor, partial curve, poor fit] | – | –
21 | O=c1n(-c2cccc(Cl)c2)nc2n1CCN([S+](=O)([O-])c1cccs1)C2 | – | inactive: -13.7% | –

Row | Compound | Potency | activity change, negative = cytotoxicity | outcome
22 | COc1cccc(C(=O)N[C@H]2[C@H](O)[C@H](O)C[C@@H]2c2ccc(C(F)(F)F)nc2)c1 | inconclusive: 112 µM [inhibitor, partial curve, poor fit] | – | –
23 | CN(Cc1cccn1C)C(=O)NC1CCCC1 | inconclusive: 89.1 µM [inhibitor, partial curve, poor fit] | – | –
24 | COc1ccc(-c2ccc3nc(-c4ccc(F)c(F)c4)oc3c2)c(OC)c1OC | active: 89.1 µM | – | –
25 | COC1C(=O)N(c2cccc(F)c2)C12CCN(C(=O)c1cc3ccccc3[nH]1)CC2 (configuration not stated) | active: 31.6 µM | – | –
26 | COc1ccc(CNC(=O)c2c(C)noc2-c2ccc(OC)cc2)cc1 | inconclusive: 89.1 µM [inhibitor, single point] | – | –
27 | O=C(N[C@@H](Cn1cc(Cl)c(=O)[nH]c1=O)C(=O)O)C1CCC1 | – | inactive: -1.12% [at 172 µM] | –
28 | CN(Cc1ccc(-c2ccccc2)cc1)Cc1cccnc1 | inconclusive: 17.8 µM [inhibitor, full curve, poor fit] | – | –
29 | O=C1NC(C(=O)N2CCOCC2)Cn2cccc21 (configuration not stated) | – | inactive: -2.14% | –
30 | Cc1cccc(-c2nc3ccc(C(=O)NCc4ccccc4)cc3o2)n1 | inconclusive: 50.1 µM [inhibitor, partial curve, poor fit] | – | –
31 | COC(=O)[C@@H]1Cc2c([nH]c3ccccc23)[C@H]2C[C@@H](NCc3cccs3)C[C@@H](c3ccc(F)cc3)N21 | inconclusive: 89.1 µM [inhibitor, single point] | – | –
32 | O=C(NCc1cccc(F)c1)c1nc2cccnc2n(Cc2ccccc2)c1=O | inconclusive: 56.2 µM [inhibitor, partial curve, poor fit] | – | –
33 | Cn1cccc1CN1CCCC2(CC(c3cccc(C(F)(F)F)c3)=NO2)C1 (configuration not stated) | inconclusive: 44.7 µM [inhibitor, partial curve, poor fit] | – | –
34 | Cn1nc(C(=O)NCC23CCCC=C2NC(=O)CC3)c2ccccc21 (configuration not stated) | – | inactive: 1.75% | –
35 | CCN1C(=O)C2CC3(CCN(Cc4ccc5[nH]ccc5c4)CC3)CN2C1=O (configuration not stated) | – | inactive: -1.64% | –
36 | Cc1nn2c(c1-c1ccccc1-c1ccccc1)N(Cc1ccc(C(=O)O)s1)CCC2 | inconclusive: 100 µM [inhibitor, partial curve, poor fit] | – | –
37 | C=CCN(C)C(=O)C[C@@H]1c2nc(NC(=O)c3c(F)cccc3F)sc2C[C@@H]2[C@](C)(CO)[C@H](O)CC[C@]21C | – | – | inactive
38 | O=c1c2c(n(Cc3cccnc3)n1-c1ccccc1)CN(CC1CC1)CC2 | – | inactive: -21.2% [at 172 µM] | –
39 | O=C(Cc1cccc(Cl)c1)NC1CCC(Cc2cccc(-c3cccs3)c2)CC1 (configuration not stated) | inconclusive: 15.8 µM [inhibitor, full curve, poor fit] | – | –
40 | COc1ccc(OCC(O)CN2CCC(=O)N(Cc3ccccc3)Cc3cc(OC)ccc32)cc1 (configuration not stated) | inconclusive: 50.1 µM [inhibitor, partial curve, poor fit] | – | –
41 | CN(C(=O)CN1C(=O)C(c2ccccc2)=NC12CCCCC2)c1ccccc1 | inconclusive: 100 µM [inhibitor, single point] | – | –
42 | CN(C)C(=O)c1ccc(-c2ncc3c(n2)OCCN(Cc2ccccc2)C3=O)cc1 | inconclusive: 100 µM [inhibitor, partial curve] | – | –

Row | Compound | Potency | activity change, negative = cytotoxicity | outcome
43 | O=C1CC(c2noc(Cc3c(F)cccc3Cl)n2)CN1C1CCCCC1 (configuration not stated) | inconclusive: 79.4 µM [inhibitor, partial curve, poor fit] | – | –
44 | CCc1nc2c(c(-c3ccc(OC)cc3)n1)CCN(C(=O)c1ccc3c(c1)OCO3)CC2 | – | inactive: -3.06% | –
45 | CC(C)NC(=O)CN1C(=O)C(c2ccccc2)=NC12CCCCC2 | – | inactive: -17.7% | –
46 | Cn1c(C(=O)NCc2cccnc2)cc2c1CCN(Cc1ccccc1)C2 | inconclusive: 89.1 µM [inhibitor, single point] | – | –
47 | CC(C)n1cc2cc(C(=O)N3CCN(Cc4cccc(F)c4)CC3)sc2c1 | inconclusive: 89.1 µM [inhibitor, single point] | – | –
48 | Cc1noc(-c2cccc(F)c2)c1C(=O)NCCSCc1ccccc1 | inconclusive: 50.1 µM [inhibitor, partial curve, poor fit] | – | –
49 | COc1ccc(CCNC(=O)C2CCCCN2Cc2ccc(-c3cccs3)cc2)cc1 (configuration not stated) | inconclusive: 79.4 µM [inhibitor, partial curve, poor fit] | – | –
50 | COc1cccc(-c2cc3c(ccn3Cc3cccnc3)c(C3=CCOCC3)n2)c1OC | active: 100 µM | – | –
51 | CC(=O)Nc1cccc(-c2ccc3c(n2)CN(Cc2ccccc2C)C(=O)CO3)c1 | inconclusive: 63.1 µM [inhibitor, full curve, poor fit] | – | –
52 | CN1c2cc(C(=O)Nc3cccc(F)c3)ccc2C(=O)N2CCCCCC21 (configuration not stated) | inconclusive: 56.2 µM [inhibitor, partial curve, poor fit] | – | –
53 | COCC(=O)N1CCN(Cc2ccccc2-c2ccc(C)c(Cl)c2)CC1 | inconclusive: 31.6 µM [inhibitor, partial curve, poor fit] | – | –
54 | CN(Cc1ccc(F)cc1)C(=O)C(C)(C)C | – | – | inactive [at 230 µM]
55 | O=C(N1CCN(Cc2ccc(Cl)c(Cl)c2)CC1)C12CNCC1CNC2 (configuration not stated) | inconclusive: 79.4 µM [inhibitor, partial curve, poor fit] | – | –
56 | COc1ccc(CN2CCCC(COc3ccccc3C(=O)NC(C)C)C2)c(OC)c1 (configuration not stated) | inconclusive: 89.1 µM [inhibitor, single point] | – | –
57 | COc1ccc(C(=O)N2CCCC(C(=O)N3CCC4(CC3)CC(=O)Nc3ccccc3O4)C2)cc1 (configuration not stated) | inconclusive: 56.2 µM [inhibitor, partial curve, poor fit] | – | –
58 | COc1cccc(-c2ccc(C(=O)N3CCC(N[S+](C)(=O)[O-])CC3)cc2)c1 | inconclusive: 50.1 µM [inhibitor, partial curve, poor fit] | – | –
59 | O=C(CN1CCCCCC1)N1CCC(N2C(=O)C3(CCCC3)C2c2ccccc2)CC1 (configuration not stated) | inconclusive: 79.4 µM [inhibitor, partial curve] | – | –
60 | CC1=C[C@@H](CNS(=O)(=O)c2ccc(Cl)cc2)[C@H](C(C)C)C[C@H]1CC(=O)N1CCOCC1 | inconclusive: 50.1 µM [inhibitor, partial curve, poor fit] | – | –
61 | Cc1ccc(Nc2ccnc(N3CCC(NC(=O)C4CCCC4)CC3)n2)cc1 | inconclusive: 50.1 µM [inhibitor, partial curve, poor fit] | – | –
62 | O=C1NCc2ccccc2CC12CCCN(Cc1ccnc3ccccc13)C2 (configuration not stated) | inconclusive: 56.2 µM [inhibitor, partial curve, poor fit] | – | –
